Out of some 150,000 compounds screened, about 540 (0.36%) showed an effect of 50% or more. The list shows a part of the results.
Test system: Plasmodium falciparum
Test: Primary screen in NF54 nanoGlo assay, in single point, at 2uM, 72h; a lower Z score goes with more inhibition
Assay type: functional, Erythrocyte
Conditions: timepoint 72 hour

| Structure (SMILES) | % Inhibition | Z score |
| --- | --- | --- |
| COc1ccc([C@@]2(c3nc(C)n[nH]3)CC2(C)C)cc1 | -11% | 1.93 |
| CC(C1CC1)n1cc(NC(=O)N[C@H]2CCOc3c(F)cccc32)cn1 (stereo partly specified) | -2% | 0.2 |
| CC[C@H](C)N(Cc1ccncc1)C(=O)c1nc(C(C)C)cs1 | 4% | -0.86 |
| Cc1ncsc1CN[C@@H](C)c1cccc(-n2cnnc2)c1 | -5% | 0.59 |
| CC(C)Cc1cc(CNc2nccc(N3CCC[C@H](O)C3)n2)on1 | -5% | 0.68 |
| CN(C)S(=O)(=O)c1ccc(C(=O)N2CC[C@H](c3ccc4c(c3)CCO4)C2)cc1 | -10% | 1.12 |
| O=C(O)c1cncc(C(=O)N(CCc2cccc(F)c2)C2CC2)c1 | 35% | -3.94 |
| COCCC1(C(=O)n2nc(C3CCC3)nc2N)CCCC1 | -13% | 1.29 |
| COCCO[C@H]1CN(C2CCN(C(=O)c3ccc4ccccc4n3)CC2)C12CCCCC2 | 14% | -2.24 |
| COc1ccc(CCN2C(=O)N(c3cccc(C(F)(F)F)c3)[C@H](N(O)C(=O)Nc3cccc(C(F)(F)F)c3)C2(C)C)cc1 | -2% | 0.26 |
| NC(=NCCCOCCOCc1ccccc1)NC1CCCC1 | -2% | 0.21 |
| CC[C@@H](C(=O)O)N(CC)Cc1ccc(Cl)s1 | -11% | 1.53 |
| O=C(NCCc1cnc(C2CC2)nc1)[C@H]1CCCOC1 | 23% | -2.95 |
| CCc1nnc(COc2cc(C)nc3ccccc23)o1 | 27% | -3.02 |
| O=C(Nc1ccc(Cl)cc1)N1Cc2nc[nH]c2C[C@H]1c1nc(-c2ccc3ccccc3c2)no1 | 19% | -2.22 |
| CC(C)CS(=O)(=O)CCC(=O)N1CCCC[C@H]1c1ccco1 | -6% | 0.9 |
| N=C(Cc1ccccc1)NOC(=O)c1cccc2ccccc12 | 40% | -5.13 |
| COc1ccc2c(n1)N(C(=O)c1cc(C(F)F)ncn1)CC2 | -6% | 0.97 |
| CC(NC1C2CCOC2C12CCC2)c1cnccn1 (stereo unspecified) | -2% | 0.25 |
| Cc1cccnc1[C@H](C)NC(=O)CCc1scnc1C | -10% | 1.11 |
| CCn1ccc(C(=O)Nc2cnn3c2NCCC3)cc1=O | -3% | 0.48 |
| CCN(CC)c1nc(C)nc2sc(C(=O)N3CCN(c4ccc(OC)cc4)CC3)c(C)c12 | -7% | 1.1 |
| CC1CC1C(=O)Nc1nnc(C2CC2)s1 (stereo unspecified) | 17% | -1.93 |
| NC(=O)c1ccccc1NC(=O)C1CCN(c2cc(N3CCCC3)ncn2)CC1 | 7% | -1.36 |
| CN(Cc1ccc2c(c1)OCO2)C(=O)c1cnn[nH]1 | -15% | 1.51 |
| N#Cc1ccc(Oc2ccc(NC(=O)NCc3cccnc3)cc2)cc1 | -5% | 0.95 |
| CC[C@H](C)[C@H](NC(=O)[C@H](C)N1Cc2ccccc2C1=O)c1nc2ccccc2[nH]1 | 2% | -0.23 |

| Structure (SMILES) | % Inhibition | Z score |
| --- | --- | --- |
| COc1cccc(CC(=O)N2CCc3nc(N4CCCC4)nc(N4CCC(C)CC4)c3C2)c1 | -1% | 0.13 |
| CCc1nc(CN(Cc2ccco2)C(=O)NC(C)C)[nH]c(=O)c1Cc1ccc(OC)cc1 | -3% | 0.48 |
| C[C@H](NC(=O)Nc1nccs1)c1ccc(-n2cccn2)cc1 | 3% | -0.48 |
| N#CCN(C(=O)Cc1ccc(F)cc1)C1CC1 | -8% | 1.1 |
| CC(=O)N1CCN(C(=O)c2cc(S(=O)(=O)N(C)c3ccc(F)cc3)ccc2Cl)CC1 | -11% | 1.46 |
| CN(C(=O)c1ccc(F)c(Br)c1)c1ccnn1C | -5% | 0.79 |
| O=C(NCCc1cscn1)N1CC(F)C1 | 6% | -0.76 |
| O=C(Nc1ccc2c(c1)OCCO2)c1ncn(C[C@H](O)c2ccc(F)cc2)n1 | -18% | 2.09 |
| O=C(C[C@@H]1C=CCC1)NS(=O)(=O)c1cccc2c1N=S=N2 | 4% | -0.58 |
| COCCN(Cc1ccncc1)C(=O)c1cc(-c2cc(OC)ccc2OC)nn1C | -6% | 0.65 |
| COCCC(=O)N1CCc2nc(N3CCN(C)CC3)sc2C1 | -8% | 1.13 |
| CCc1nc(C)c(C(=O)N2CCCC[C@@H]2CCc2cccs2)o1 | -8% | 1.05 |
| CCCCN1C(=O)CCC(C(=O)Nc2ccc(C)cn2)C1c1ccccc1OC (stereo unspecified) | 0% | -0.03 |
| COc1cc(N[C@H]2CC(=O)N(Cc3cccc(F)c3)C2)ncn1 | -10% | 1.61 |
| COC(=O)Nc1ccc(NC(=O)C(C)(C)F)cc1F | -11% | 1.39 |
| CC[C@@H](COC(=O)Nc1cccc(C)c1)NC(=O)OCC(C)C | -7% | 0.97 |
| C=C(C)COc1cccc(NC(=O)C(=O)N[C@H]2CCN(C(C)C)C2)c1 | -7% | 1.43 |
| O=C(Nc1nc(-c2ccccc2)cs1)c1cccc(S(=O)(=O)NCc2ccc3c(c2)OCO3)c1 | -8% | 1.57 |
| COc1ccc(-c2c(N3CCCC3)cn[nH]c2=O)cc1 | -1% | 0.1 |
| CC(C)=Cc1nc(C[C@H](C)N(C)C(=O)OC(C)(C)C)no1 | -5% | 0.48 |
| Cc1cc(F)cc(C(=O)OCCNc2ncccn2)c1 | 31% | -3.5 |
| CCC(=O)N1CCc2ccc(OCc3nc(C(=O)N4CCN(C(C)=O)CC4)cs3)cc2[C@@H]1c1ccccc1 | -3% | 0.29 |
| CC(C)(C)c1cc(CN2C[C@H](O)[C@@H](N3CCC(F)(F)CC3)C2)n[nH]1 | -6% | 0.96 |
| CC[C@@H](CO)N(Cc1ccc(F)cc1)C(=O)CCC(C)=O | -12% | 1.67 |
| Cc1cc2nc(-c3ccccc3)cc(C(=O)N3CC[C@H](O)C3)c2cc1C | -9% | 0.93 |
| Cc1cccc(-c2cn[nH]c2[C@H]2CCCN(C(=O)c3cc(F)ccc3F)C2)c1 | 2% | -0.44 |

Source: ChEMBL document CHEMBL4888484, “Replenishing the malaria drug discovery pipeline: Screening and hit evaluation of the MMV Hit Generation Library 1 (HGL1) against asexual blood stage Plasmodium falciparum ,using a nano luciferase reporter read-out” (2022)
